# Experimental data: publication PMC4336329 (PLoS ONE, 2015)
# Hit rate of the full screen: of about 310,000 compounds, about 14,000 (4.5%) showed an effect of 50% or more. Effects have a minus sign here. The list shows a part of the results.
# Target: human ether-à-go-go-related gene (hERG) potassium channel (human, UniProt Q12809)
# Test: primary screen, population patch clamp on CHO cells stably expressing hERG
# 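Also: peak tail current of the secondary pulse compared with the same well before compound.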
# human ether-à-go-go-related gene (hERG) potassium channel, sequence (Q12809 whole entry, looked up): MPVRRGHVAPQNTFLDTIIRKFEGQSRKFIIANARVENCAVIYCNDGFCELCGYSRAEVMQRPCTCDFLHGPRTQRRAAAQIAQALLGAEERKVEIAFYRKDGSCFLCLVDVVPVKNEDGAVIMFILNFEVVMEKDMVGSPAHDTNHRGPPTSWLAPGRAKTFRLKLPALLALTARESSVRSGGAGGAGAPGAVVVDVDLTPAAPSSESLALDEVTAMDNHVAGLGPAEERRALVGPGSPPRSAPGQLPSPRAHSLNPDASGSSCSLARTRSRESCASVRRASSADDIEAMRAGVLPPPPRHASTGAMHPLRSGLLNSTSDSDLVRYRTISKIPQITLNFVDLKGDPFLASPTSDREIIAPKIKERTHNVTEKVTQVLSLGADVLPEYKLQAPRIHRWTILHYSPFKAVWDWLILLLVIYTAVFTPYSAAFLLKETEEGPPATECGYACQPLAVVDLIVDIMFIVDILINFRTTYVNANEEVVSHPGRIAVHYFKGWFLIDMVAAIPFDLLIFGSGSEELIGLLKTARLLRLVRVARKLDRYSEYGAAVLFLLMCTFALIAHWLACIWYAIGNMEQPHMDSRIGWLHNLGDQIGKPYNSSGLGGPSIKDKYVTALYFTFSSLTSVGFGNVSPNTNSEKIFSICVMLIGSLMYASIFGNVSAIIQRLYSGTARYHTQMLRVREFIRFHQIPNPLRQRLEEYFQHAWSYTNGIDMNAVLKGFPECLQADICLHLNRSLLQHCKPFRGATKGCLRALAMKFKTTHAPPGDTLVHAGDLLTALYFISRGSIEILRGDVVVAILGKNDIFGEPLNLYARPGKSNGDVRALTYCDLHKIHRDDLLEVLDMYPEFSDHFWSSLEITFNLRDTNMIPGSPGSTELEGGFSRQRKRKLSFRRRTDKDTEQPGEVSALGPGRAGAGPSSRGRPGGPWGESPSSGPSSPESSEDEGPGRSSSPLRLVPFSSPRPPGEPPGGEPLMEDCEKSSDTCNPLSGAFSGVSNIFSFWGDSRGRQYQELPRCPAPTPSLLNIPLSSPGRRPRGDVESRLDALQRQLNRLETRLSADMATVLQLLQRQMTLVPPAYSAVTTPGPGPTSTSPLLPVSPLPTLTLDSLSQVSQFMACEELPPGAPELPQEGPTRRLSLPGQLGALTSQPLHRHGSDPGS
row,Structure (SMILES),"hERG current change (%, negative = inhibition) at 10uM"
1,CC1=NOC(=O)/C1=C/c1ccc(O)cc1,41.4%
2,CN(C)CCSc1nc(N)c2c3c(sc2n1)CN(C)CC3,9.66%
3,COCCN(C(=O)COC(=O)/C=C/c1ccc2c(c1)OCO2)c1c(N)n(Cc2ccccc2)c(=O)[nH]c1=O,9.63%
4,O=C(O)C(CCCCNS(=O)(=O)c1ccc(F)cc1)NS(=O)(=O)c1ccc(F)cc1 (stereo not shown),8.92%
5,CCCC(=O)Nc1c(-c2cccs2)c(=O)c2ccccc2n1CC,-5.6%
6,Cc1cccc(C)c1NC(=S)NC(C)(C)CO,12.9%
7,CCOc1ncccc1C(=O)OCc1ccc(C(=O)OC)cc1,6.63%
8,Cc1cc(C)n(C)c(=O)c1C#N,12.7%
9,Cc1noc(C)c1-c1ccc2ncnc(NCC3CCCCN3C)c2c1 (stereo not shown),12.1%
10,CCCN1C(=O)CC(c2ccco2)Sc2ccccc21 (stereo not shown),-19.4%
11,Cn1ncc(C(=O)Nc2ccc(OC(F)(F)F)cc2)c1-n1cccc1,-81.3%
12,CCC(=O)c1ccc(OCC(=O)OCC(=O)NCCCc2ccccc2)cc1,6.36%
13,Cc1ccnc(NC(=O)c2oc3ccccc3c2C)c1,24.7%
14,CCOc1ccc(NC(=S)Nc2ccc(F)cc2)cc1,-21.6%
15,CC1CCc2[nH]nc(C(=O)O)c2C1 (stereo not shown),-0.665%
16,CC(=O)C1=C(O)C(=O)N(C2CCCCC2)C1c1ccccc1 (stereo not shown),0.00058%
17,COc1ccc(CCNC(=O)CSc2nnc(-c3ccc(F)cc3)c3ccccc23)cc1OC,-23.9%
18,Cc1cccc(NC(=O)CCN2CCN(C/C=C/c3ccccc3)CC2)c1.Cl,-74%
19,Cc1ccc([N+](=O)[O-])cc1NC(=O)Nc1onc(C)c1C,17.1%
20,O=C(NCCc1ccc(Cl)cc1)C1CCN(S(=O)(=O)N2CCCCC2)CC1,-5.98%
21,Cl.NC(CO)c1cn([C@@H](CCC(=O)O)C(=O)N2CCNCC2)nn1 (stereo partly shown),18.3%
22,Cc1ccc(NC(=O)Cc2nc(CCl)cs2)cc1.Cl,-3.78%

row,Structure (SMILES),"hERG current change (%, negative = inhibition) at 10uM"
1,Oc1ccccc1-c1nc(/C=C/c2ccccc2)nn1-c1ccccc1,10.2%
2,COc1ccc(NC(=O)CN(C)C(=O)c2cccc(S(=O)(=O)Nc3ccccc3Cl)c2)cc1,2.72%
3,CCCN=C(C)C1=C(O)c2ccccc2C1=O,11.3%
4,CC1(C)C2CC[C@]1(C)C(=O)N(CCCCN1CCN(c3ccccn3)CC1)C2=O.Cl,-44%
5,CN1C(=O)/C(=C\c2ccccc2OCc2ccccc2)SC1=S,14.8%
6,N#CC1=C(N)NC(=S)C(C(N)=O)C1c1ccc([N+](=O)[O-])cc1 (stereo not shown),13.4%
7,Cc1ccccc1CSCc1nc(N)nc(Nc2ccccc2C)n1,20.2%
8,O=C1NC(=O)N(c2ccccc2)C(=O)/C1=C/c1coc2ccc(O)cc2c1=O,-6.18%
9,O=C(NN1CCOCC1)c1cc(-c2cccs2)nc2ccccc12,-24%
10,O=C(Nc1nc(-c2cccs2)cs1)c1ccc(S(=O)(=O)N2CCCC2)cc1,5.72%
11,Cc1ccc(C)c(S(=O)(=O)NCc2ccc(C(=O)N3CCN(c4ccccc4)CC3)cc2)c1,-3.21%
12,O=C(O)CSCc1nc2scc(-c3ccccc3)c2c(=O)[nH]1,19.1%
13,CCn1c(C)nc2cc(C(=O)NNC(=S)Nc3ccc(OC)cc3)ccc21,23.5%
14,COc1cc2c(cc1OC)CN(C(=O)CCOc1ccccc1)CC2,-8.53%
15,Cc1ccc(OC(C)C(=O)Nc2ccc3c(c2)n(C)c(=O)n3C)c(C)c1 (stereo not shown),11.7%
16,Cc1ccc2c(c1C)NC(C)CC2C.Cl (stereo not shown),1%
17,Cc1ccc(S(=O)(=O)CCC(=O)N(C)c2c(N)n(Cc3ccccc3)c(=O)[nH]c2=O)cc1,14.4%
18,CCn1c(CNC(=O)COc2c(C)cccc2C)nnc1SCC(=O)Nc1nccs1,-51.8%
19,O=C(NC1CCN(C(=O)NCc2ccccc2)CC1)c1ccc(F)cc1,-15.8%
20,C1=CCN(Cc2ccccc2)C1,0.36%
21,CC1Cc2ccccc2N1C(=O)CSc1nc(-c2ccco2)cc(C(F)(F)F)n1 (stereo not shown),-1.9%
22,CCN(CC)Cc1oc(-c2ccccc2)cc1C(=O)O,10.9%

row,Structure (SMILES),"hERG current change (%, negative = inhibition) at 10uM"
1,FC(F)(F)c1cccc(NC(=S)NCCc2ccccn2)c1,-25.5%
2,Cc1ccccc1C(=O)Nc1ccc(C(=O)N/N=C/c2ccc(F)cc2)cc1,18.9%
3,CCOC(=O)C1CCCN(C(=O)Cn2c(=O)c3cccn3c3cccnc32)C1 (stereo not shown),21.2%
4,CCNC(=O)c1cccc(S(=O)(=O)N2CCCCCC2)c1,-2.91%
5,CC(C)[C@]12O[C@H]1[C@@H]1O[C@]13[C@]1(O[C@H]1C[C@H]1C4=C(CC[C@@]13C)C(=O)OC4)[C@@H]2O,0.465%
6,Cn1nc(-c2ccc(Cl)cc2)c2cc(C(=O)NCCCN3CCCC3)sc21,-59.5%
7,COc1ccc(CNC(=O)C2CCN(S(=O)(=O)c3cccc4nsnc34)CC2)cc1,5.82%
8,CC(=O)c1cccc(NC(=S)NC(=O)c2ccccc2C)c1,-4.16%
9,O=C(O)COc1cccc(NC(=O)c2ccccc2)c1,-3.14%
10,COc1ccc(OC)c(S(=O)(=O)N2CCC(C(=O)N(C)Cc3ccccc3)CC2)c1,-23.5%
11,COc1cc(CN2CCN(C(c3ccccc3)c3ccccc3)CC2)cc(OC)c1OC.O=C(O)C(=O)O,-17.2%
12,CCOc1ccccc1N1CCN(C(=O)c2ccc(OCC(=O)N3CCOCC3)c(OC)c2)CC1,3.55%
13,COc1ccc2[nH]c(=O)c(CN(C)C(=O)COc3ccccc3)cc2c1,12.1%
14,CCC(C(=O)Nc1ccccc1Cl)n1nc(C)c2c(C)n(-c3ccccc3)nc2c1=O (stereo not shown),-4.53%
15,COCc1cc(C)n(CC(=O)Nc2ccc3c(c2)OCO3)c(=O)c1C#N,8.68%
16,CCN(CC(=O)Nc1c(C(=O)OC)[nH]c2ccc(C)cc12)c1ccc2c(c1)OCO2,2.19%
17,Cc1cc(C(=O)N2CCc3ccccc32)c2ccccc2n1,2.66%
18,O=C(Nc1ncn[nH]1)C(F)(F)C(F)F,-2.1%
19,O=C(CN1CCOCC1)Nc1ncc(Br)cc1Br,-20.3%
20,COc1cccc(N(CC(=O)NCc2cccnc2)S(C)(=O)=O)c1,8.48%
21,CCC(=O)Nc1ccccc1Nc1cc(C#N)c(C#N)cc1[N+](=O)[O-],1.07%
22,Oc1ccc(/C=N/Nc2ncc(Cl)cc2Cl)cc1,9.58%

row,Structure (SMILES),"hERG current change (%, negative = inhibition) at 10uM"
1,CC(C)n1cc(CN2CCC(Oc3ccc(C(=O)N4CCCC4)cc3)CC2)cn1,-9.96%
2,COc1ccc(CN(C)C(C)C(=O)Nc2ccc(S(=O)(=O)N3CCCC3)cc2)c(OC)c1OC (stereo not shown),10.3%
3,CN(C)c1ccc(NC(=O)CN2CCC(O)(c3ccccc3)CC2)cc1,-26%
4,Cc1ccc(C)c(OCc2cc(C(=O)N3C[C@@H](C)O[C@@H](C)C3)no2)c1,4.95%
5,COc1ccc(-c2ccc(=O)n(CC(=O)Nc3ccc(C(=O)NC4CC4)cc3)n2)cc1OC,4.4%
6,Cc1cc(C(=O)Nc2sc3c(c2C#N)CCCCC3)cs1,-18.3%
7,CC(C)(C)OC(=O)NCc1ccc(CNC(=O)c2[nH]cnc2C(=O)NCC(=O)OCc2ccccc2)cc1,1.41%
8,COc1ccc(OC)c(NC(=O)CC2C(=O)NCCN2C(=O)c2ccccc2)c1 (stereo not shown),15.7%
9,CCOC(=O)c1c(C)[nH]c(C(=O)COC(=O)CCSc2ccccc2)c1C,29.9%
10,CCCN(CCC)C1Cc2cc(OC)c(OC)cc2C1.O=C(O)/C=C\C(=O)O,-33.4%
11,COc1ccc(-n2cnnc2SCC(=O)NC2CCS(=O)(=O)C2)cc1 (stereo not shown),8.52%
12,Cc1cccc(CC(=O)NCCS(=O)(=O)N2CCN(c3cccc(Cl)c3)CC2)c1,-20.2%
13,Cn1cccc1C(C(=O)NC1CCCCC1)N(C(=O)Cc1cccs1)C1CC1 (stereo not shown),8.24%
14,CCOC(=O)c1csc(NC(=O)c2ccc3c(c2)OCCO3)n1,9.85%
15,CC(=O)c1cccc(Nc2cc(C)nc3c(C)cc(C)cc23)c1.Cl,-56.1%
16,COc1ccc(C(CC(=O)N2CCN(c3ccccc3)CC2)c2c(OC)cc(OC)c3ccc(=O)oc23)cc1 (stereo not shown),1.88%
17,O=C(NC1CCCCC1)C(c1ccncc1)N(C(=O)c1ccco1)c1ccc(F)cc1 (stereo not shown),-15%
18,O=C(NCc1ccccc1)C(=O)Nc1cccc(C(=O)O)c1,4.16%
19,COc1nc(NC(C)(C)C)nc(Oc2ccc(=O)n(C)n2)n1,16.8%
20,Cc1cccc(Cn2c(Cc3ccccc3)nc3ccccc32)c1,-24.6%
21,COc1ccc(CN2CCn3ncc(C(=O)Nc4cccc(C)c4)c3C2=O)cc1,6.5%
22,CCOc1ccc(C(=O)CCC(=O)NC(CC(C)C)C(=O)OC)cc1 (stereo not shown),-2.17%
